In patent US20240384006A1 (Amgen, published 2024):
Residue numbers refer to the chain shown, from its start. Numbers in names are those of the source. Blank lines part the entries; values can stand above or below the binder they belong to.

How the values were obtained:
human CD22 [1] = biological target: T1, human CD22 (human, UniProt P20273 20-847); experiment: flow cytometry on CHO cells expressing human CD22, one site-specific binding fit, mean of three
T1 construct: whole, on cells; also called hu CD22
T1 sequence (looked up): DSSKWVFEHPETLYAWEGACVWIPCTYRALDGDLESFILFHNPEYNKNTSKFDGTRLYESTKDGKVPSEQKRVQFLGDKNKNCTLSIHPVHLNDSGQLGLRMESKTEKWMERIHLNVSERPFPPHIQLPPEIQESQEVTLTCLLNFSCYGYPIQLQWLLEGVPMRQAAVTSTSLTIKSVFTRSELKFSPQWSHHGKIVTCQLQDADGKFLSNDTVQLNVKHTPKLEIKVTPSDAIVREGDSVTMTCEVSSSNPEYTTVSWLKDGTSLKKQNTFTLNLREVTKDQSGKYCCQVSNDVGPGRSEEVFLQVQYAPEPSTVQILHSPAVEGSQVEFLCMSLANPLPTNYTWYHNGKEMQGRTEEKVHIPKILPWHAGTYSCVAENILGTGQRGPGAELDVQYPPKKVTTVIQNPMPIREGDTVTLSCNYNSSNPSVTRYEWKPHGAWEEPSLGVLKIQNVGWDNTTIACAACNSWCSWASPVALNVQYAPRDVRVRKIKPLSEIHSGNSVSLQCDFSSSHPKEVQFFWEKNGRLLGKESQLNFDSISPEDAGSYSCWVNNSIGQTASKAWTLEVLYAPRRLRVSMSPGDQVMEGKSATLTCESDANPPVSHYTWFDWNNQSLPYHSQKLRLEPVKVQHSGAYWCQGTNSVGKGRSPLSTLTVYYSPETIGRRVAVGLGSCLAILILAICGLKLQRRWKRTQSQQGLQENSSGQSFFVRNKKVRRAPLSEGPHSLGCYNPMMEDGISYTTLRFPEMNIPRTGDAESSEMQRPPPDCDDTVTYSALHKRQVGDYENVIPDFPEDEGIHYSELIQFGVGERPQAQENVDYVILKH
Method: (§1) Cell-based affinity of CD20 CD22 dual targeting antigen-binding molecules was determined by nonlinear regression (one site—specific binding) analysis. CHO cells expressing human CD20, cyno CD20, human CD22 or cyno CD22 were incubated with decreasing concentrations of CD20 CD22 dual targeting antigen-binding molecules (up to 800 nM, step 1:2 or 1:3, 11 steps) for 16 h at 4° C. Bound CD20 CD22 dual targeting antigen-binding molecules were detected with Alexa Fluor 488-conjugated AffiniPure Fab Fragment Goat Anti-Human IgG (H+L). Fixed cells were stained with DRAQ5, Far-Red Fluorescent Live-Cell Permeant DNA Dye and signals were detected by fluorescence cytometry. Respective equilibrium dissociation constant (Kd) values were calculated with the one site specific binding evaluation tool of the GraphPad Prism software. Mean Kd values and affinity gaps were calculated with Microsoft Excel.
(§2) Cell-based affinities of CD20 CD22 dual targeting antigen-binding molecules on target-transfected CHO cells were determined by nonlinear regression (one site—specific binding) analysis. Mean Kd values were calculated from three independent measurements. Affinity gaps were determined by dividing the cyno Kd by the human Kd.

cyno CD22 [2] = biological target: T2, cyno CD22 (cyno); experiment: flow cytometry on CHO cells expressing cyno CD22, one site-specific binding fit, mean of three
T2 construct: whole, on cells; also called cy CD22
Method: as §1, §2

human CD20 [3] = biological target: T3, human CD20 (human, UniProt P11836 1-297); experiment: flow cytometry on CHO cells expressing human CD20, one site-specific binding fit, mean of three
T3 construct: whole, on cells; also called hu CD20; B-lymphocyte antigen CD20
T3 sequence (looked up): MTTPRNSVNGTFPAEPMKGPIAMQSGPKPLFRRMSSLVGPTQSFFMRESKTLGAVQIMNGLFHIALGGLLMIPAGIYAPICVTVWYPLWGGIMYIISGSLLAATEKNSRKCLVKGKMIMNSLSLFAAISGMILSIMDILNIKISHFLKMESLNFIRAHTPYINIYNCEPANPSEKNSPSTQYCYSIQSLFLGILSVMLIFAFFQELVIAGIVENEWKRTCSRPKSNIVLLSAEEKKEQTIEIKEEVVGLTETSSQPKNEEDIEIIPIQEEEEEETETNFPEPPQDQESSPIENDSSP
Method: as §1, §2

cyno CD22 [4] = biological target: T2, cyno CD22; experiment: cyno Kd divided by human Kd, cell-based affinity on CHO cells
Method: as §1, §2

cyno CD20 [5] = biological target: T4, cyno CD20 (cyno, UniProt M4ZHZ6 1-297); experiment: as above
T4 construct: whole, on cells; also called cy CD20
T4 sequence: T3 sequence (looked up) with S25P, F31L, T51A, A157V, K217R, N226S, I227V, T239V
Method: as §1, §2

human CD20 [6] = biological target: T3, human CD20; experiment: cell-based or functional assay
human CD22 [7] = biological target: T1, human CD22; experiment: cell-based or functional assay
cyno CD20 [8] = biological target: T4, cyno CD20; experiment: flow cytometry on CHO cells expressing cyno CD20, one site-specific binding fit, mean of three
Method: as §1, §2

Kd (human CD22 [1]): 0.32 nM
Kd (cyno CD22 [2]): 2.46 nM
Kd (human CD20 [3]): 2.72 nM
Affinity gap Kdcy/Kdhu CD22 (cyno CD22 [4]): 7.69
Affinity gap Kdcy/Kdhu CD20 (cyno CD20 [5]): 0.64
Kd (cyno CD20 [8]): 1.74 nM
B1: CD20 82-A3 CC × CD22 16-G4 CC × I2E × scFc (S5H) (bispecific antibody)
chain: EVQLVESGGGLVQPDRSLRLSCAASGFTFRDYAMHWVRQAPGKCLEWVSGIAWNSDSIGYADSVKGRFTISRDNAKNSLFLQMHSLRPEDTALYFCAKDTLYGSGSPRAFDIWGQGTMVTVSSGGGGSGGGGSGGGGSEIVLTQSPATLSVSPGERATLSCRASQSVNNNLAWYQQKPGQAPRLLIYGASTRATGIPARFSGSGSGTEFTLTISRLEPEDFAVYYCQQSNNWPITFGCGTRLEIKSGGGGSQVQLVQSGAEVKKPGASVKVSCKASGYTFTSYGISWVRQAPGQCLEWMGWISAYNGNTIYAQKFQGRVTLTRDTSTSTAYMELRSLRSDDTAMYYCARDPDYYGSGSYSDYWGQGTLVTVSSGGGGSGGGGSGGGGSEIVLTQSPATLSVSPGERATLSCRASQSVSSNLAWYQQKPGQAPRLLIYGASSRATGIPARFSGSGSGTEFTLTISSLQSEDFAVYYCQQYHSWPLLTFGCGTKVEIKSGGGGSEVQLVESGGGLVQPGGSLKLSCAASGFTFNKYAINWVRQAPGKGLEWVARIRSKYNNYATYYADAVKDRFTISRDDSKNTVYLQMNNLKTEDTAVYYCARAGNFGSSYISYWAYWGQGTLVTVSSGGGGSGGGGSGGGGSQTVVTQEPSLTVSPGGTVTIT[in this place about 80 residues]FGSGTKLTVLGGGG[in this place human IgG1 Fc with R292C N297G V302C (EU numbers)]GGGGSGGGGSGGGGSGGGGSGGGGSGGGGS[in this place human IgG1 Fc with R292C N297G V302C (EU numbers)]
notes: Single chain: anti-CD20 scFv, anti-CD22 scFv, anti-CD3 scFv (I2E), scFc
EC50, 48-hour FACS based cytotoxicity assay, Oci-Ly 1 CD22 k.o. #A1 (human CD20 [6]): 0.00345 nM
EC50, 48-hour FACS based cytotoxicity assay, Oci-Ly 1 CD20 k.o. #A5 (human CD22 [7]): 0.00531 nM

Kd (human CD22 [1]): 0.22 nM
Kd (cyno CD22 [2]): 3.65 nM
Kd (human CD20 [3]): 2.21 nM
Affinity gap Kdcy/Kdhu CD22 (cyno CD22 [4]): 16.6
Affinity gap Kdcy/Kdhu CD20 (cyno CD20 [5]): 0.6
Kd (cyno CD20 [8]): 1.32 nM
B2: CD20 82-A3 CC × CD22 17-F6 CC × I2E × scFc (W6V) (bispecific antibody)
chain: EVQLVESGGGLVQPDRSLRLSCAASGFTFRDYAMHWVRQAPGKCLEWVSGIAWNSDSIGYADSVKGRFTISRDNAKNSLFLQMHSLRPEDTALYFCAKDTLYGSGSPRAFDIWGQGTMVTVSSGGGGSGGGGSGGGGSEIVLTQSPATLSVSPGERATLSCRASQSVNNNLAWYQQKPGQAPRLLIYGASTRATGIPARFSGSGSGTEFTLTISRLEPEDFAVYYCQQSNNWPITFGCGTRLEIKSGGGGSQVQLVQSGAEVKKPGASVKVSCKASGYTFTTYGISWVRQAPGQCLEWMGWISPKNGVTTYAQKFQGRVTITADESTSTAYMELSRLTSDDTAMYYCARDPDYYGSGSYSDYWGQGTLVTVSSGGGGSGGGGSGGGGSEIVLTQSPATLSVSPGERATLSCRASQSVSSNLAWYQQKPGQAPRLLIYGASSRATGIPARFSGSGSGTEFTLTISSLQSEDFAVYYCQQYHSWPLLTFGCGTKVEIKSGGGGSEVQLVESGGGLVQPGGSLKLSCAASGFTFNKYAINWVRQAPGKGLEWVARIRSKYNNYATYYADAVKDRFTISRDDSKNTVYLQMNNLKTEDTAVYYCARAGNFGSSYISYWAYWGQGTLVTVSSGGGGSGGGGSGGGGSQTVVTQEPSLTVSPGGTVTIT[in this place about 80 residues]FGSGTKLTVLGGGG[in this place human IgG1 Fc with R292C N297G V302C (EU numbers)]GGGGSGGGGSGGGGSGGGGSGGGGSGGGGS[in this place human IgG1 Fc with R292C N297G V302C (EU numbers)]
notes: as for B1
EC50, 48-hour FACS based cytotoxicity assay, Oci-Ly 1 CD22 k.o. #A1 (human CD20 [6]): 0.00032 nM
EC50, 48-hour FACS based cytotoxicity assay, Oci-Ly 1 CD20 k.o. #A5 (human CD22 [7]): 0.00808 nM

Kd (human CD22 [1]): 567 nM
Kd (cyno CD22 [2]): 1150 nM
Kd (human CD20 [3]): 1.62 nM
Affinity gap Kdcy/Kdhu CD22 (cyno CD22 [4]): 2.03
Affinity gap Kdcy/Kdhu CD20 (cyno CD20 [5]): 0.78
Kd (cyno CD20 [8]): 1.26 nM
B3: CD20 82-A3 CC × CD22 99-F10 CC × I2E × scFc (P6B) (bispecific antibody)
chain: EVQLVESGGGLVQPDRSLRLSCAASGFTFRDYAMHWVRQAPGKCLEWVSGIAWNSDSIGYADSVKGRFTISRDNAKNSLFLQMHSLRPEDTALYFCAKDTLYGSGSPRAFDIWGQGTMVTVSSGGGGSGGGGSGGGGSEIVLTQSPATLSVSPGERATLSCRASQSVNNNLAWYQQKPGQAPRLLIYGASTRATGIPARFSGSGSGTEFTLTISRLEPEDFAVYYCQQSNNWPITFGCGTRLEIKSGGGGSQVQLVESGGGVVQPGRSLRLSCAASGFTFSAYGMHWVRQAPGKCLEWVAVILYDGSNKYYADSVKGRFTISRDNSKNTLYLQMNSLRAEDTAVYYCARGSGWLQLGDYFDYWGQGTLVTVSSGGGGSGGGGSGGGGSQSALTQPPSVSGSPGQSITISCTGTSSDVGGYNYVSWYQQHPGKAPKLMIYEVSNRPSGVSNRFSGSKSGNTASLTISGLQAEDEADYYCSSYTSSSTLVFGCGTKLTVLSGGGGSEVQLVESGGGLVQPGGSLKLSCAASGFTFNKYAINWVRQAPGKGLEWVARIRSKYNNYATYYADAVKDRFTISRDDSKNTVYLQMNNLKTEDTAVYYCARAGNFGSSYISYWAYWGQGTLVTVSSGGGGSGGGGSGGGGSQTVVTQEPSLTVSPGGTVTIT[in this place about 80 residues]FGSGTKLTVLGGGG[in this place human IgG1 Fc with R292C N297G V302C (EU numbers)]GGGGSGGGGSGGGGSGGGGSGGGGSGGGGS[in this place human IgG1 Fc with R292C N297G V302C (EU numbers)]
notes: as for B1
EC50, 48-hour FACS based cytotoxicity assay, Oci-Ly 1 CD22 k.o. #A1 (human CD20 [6]): 0.00012 nM
EC50, 48-hour FACS based cytotoxicity assay, Oci-Ly 1 CD20 k.o. #A5 (human CD22 [7]): 0.0401 nM
